Over roughly 110,000 compounds, “z-score” has its median near -0.1; the highest 2% begin near 2. Some of the results follow. Active and inactive are the calls of the source.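 Rule for the calls: active = z-score in the third read window above 3 or below -3; inactive = the rest.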
What follows are molecules tested against Metabotropic glutamate receptor 8 (Rattus norvegicus) (UniProt P70579) (assay: rat mGluR8 modulators via GIRK flux, primary screen, cell-based, thallium flux, HTS (AID 488969)). Conditions: HEK293 rat mGluR8, GIRK (G protein-gated inwardly rectifying potassium channel) thallium flux, FluoZin2; at 10 µM; stronger effect = higher value; submaximal glutamate (EC20) added with thallium.
Chain of UniProt P70579 (P70579 whole entry, looked up): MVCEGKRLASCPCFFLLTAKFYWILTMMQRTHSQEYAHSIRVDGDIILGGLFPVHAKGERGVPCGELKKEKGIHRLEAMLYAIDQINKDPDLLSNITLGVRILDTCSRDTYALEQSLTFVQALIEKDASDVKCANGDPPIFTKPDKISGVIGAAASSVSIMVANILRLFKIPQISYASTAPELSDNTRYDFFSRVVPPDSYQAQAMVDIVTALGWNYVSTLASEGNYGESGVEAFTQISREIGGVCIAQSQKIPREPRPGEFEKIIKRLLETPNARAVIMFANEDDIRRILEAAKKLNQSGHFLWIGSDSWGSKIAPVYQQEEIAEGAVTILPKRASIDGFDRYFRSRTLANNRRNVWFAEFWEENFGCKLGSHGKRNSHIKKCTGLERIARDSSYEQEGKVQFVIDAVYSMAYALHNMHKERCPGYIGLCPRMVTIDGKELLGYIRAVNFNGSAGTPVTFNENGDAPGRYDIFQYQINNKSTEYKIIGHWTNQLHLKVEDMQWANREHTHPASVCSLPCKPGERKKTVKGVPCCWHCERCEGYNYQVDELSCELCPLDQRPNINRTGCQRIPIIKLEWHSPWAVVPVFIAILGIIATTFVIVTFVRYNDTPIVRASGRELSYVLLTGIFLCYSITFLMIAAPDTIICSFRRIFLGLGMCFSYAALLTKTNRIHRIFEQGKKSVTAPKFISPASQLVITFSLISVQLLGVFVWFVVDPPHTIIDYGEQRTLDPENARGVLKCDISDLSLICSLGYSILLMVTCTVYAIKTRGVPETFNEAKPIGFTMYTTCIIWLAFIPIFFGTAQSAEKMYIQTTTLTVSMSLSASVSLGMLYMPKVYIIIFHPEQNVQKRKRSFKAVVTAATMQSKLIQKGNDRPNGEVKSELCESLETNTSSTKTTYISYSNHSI
`O=C(O)CC(CC(=O)Nc1nncs1)c1ccccc1` (configuration not stated) was tested, and the z-score was -0.273.
Molecule `O=C(COc1ccc2ccccc2c1)Nc1cccc2cccnc12` has a z-score of -0.233.
`O=S(=O)(Nc1nc2ccccc2s1)c1ccc(Cl)s1` gave a z-score of -0.467.
With `CCCCCCc1cc2cc(C(=O)NC)c(=N)oc2cc1O` the z-score was active: 11.6.
`N=c1n(CCOc2ccccc2)c2ccccc2n1CCN1CCOCC1` was tested, and the z-score was 0.873.
`CCCCNC(=O)CS(=O)Cc1nc(-c2cccs2)oc1C` (configuration not stated) gave a z-score of 0.176.
`CCOC(=O)N=S(=O)(Oc1ccc([N+](=O)[O-])cc1)c1ccccc1` (configuration not stated) showed a z-score of -0.891.
`COc1cccc(N2C(=O)C(c3ccccc3)=C(c3nc4ccccc4s3)C2NC(C)=O)c1` (configuration not stated) was tested, and the z-score was -0.254.
`CCN(CC)S(=O)(=O)c1ccc2oc(SCC(=O)NCc3ccccc3)nc2c1` showed a z-score of 0.0882.
Molecule `CN1/C(=C\C(=O)c2cccnc2)C(C)(C)c2ccccc21` has a z-score of -0.282.
`CC1C2C(C)N(C)C(=O)N(C)C2N(C)C(=O)N1C` (configuration not stated) gave a z-score of 0.288.
For `CCNC(=O)C(=O)NCCc1ccc(Cl)cc1`, the z-score was -0.338.
In the case of `CC(NC(=O)Cc1cccs1)c1ccncc1` (configuration not stated), the z-score is reported as -0.357.
`Cc1nnc2n1N=CC=C(C(C)(C)C)S2` gave a z-score of 0.419.
In the case of `COc1ccc(NC(=O)N(Cc2cccnc2)Cc2ccccc2Cl)c(OC)c1`, the z-score is reported as -0.361.
`COc1ccc(C/C(=N\O)c2ccc(OC)cc2)cc1` was tested, and the z-score was -0.363.
For `COC(=O)c1c(NC(=O)COC(=O)[C@@H](NS(=O)(=O)c2ccc(C)cc2)C(C)C)sc2c1CCC2`, the z-score was 2.02.
Work on `CC(C)(C)C(=O)Nc1nnc(-c2ccncc2)o1` yielded a z-score of 0.403.
`O=c1c2c3c(sc2ncn1/N=C/c1ccccc1)CCCC3` was tested, and the z-score was 0.196.
`CCC(CC)C(=O)Nc1ccc(Nc2ccccc2)cc1` gave a z-score of -0.165.
Molecule `O=C1CC(SCc2nc3ccccc3[nH]2)C(=O)N1c1cccc(Cl)c1` (configuration not stated) has a z-score of -0.364.
With `COc1ccccc1S(=O)Cc1ccc(C(=O)NCc2ccccc2Cl)o1` (configuration not stated) the z-score was -0.228.
`c1ccc(-c2cn3cccnc3n2)cc1` was tested, and the z-score was 0.000248.
In the case of `Nc1nc(SCC(=O)NCc2ccccc2)[nH]c(=O)c1NC(=O)c1ccccc1F`, the z-score is reported as -0.457.
For `Cc1cc(F)ccc1S(=O)(=O)Nc1ccccc1C(=O)Nc1ccccc1N1CCOCC1`, the z-score was -0.0929.
`COc1ccc(-c2cn(/N=C/c3ccc(Cl)cc3Cl)c(N)n2)cc1` gave a z-score of 1.93.
For `Cc1cc(NC(=O)c2ccc(NC(=O)C(C)C)cc2)no1`, the z-score was -0.036.
`CCOC(=O)c1ccc(NCc2ccncc2)cc1` showed a z-score of -0.215.
Work on `CC(C)Oc1ccc(NC(=O)Oc2ccccc2)cc1` yielded a z-score of 0.0452.
`CC1CN(CC(O)COC(c2ccccc2)c2ccccc2)CC(C)O1` (configuration not stated) was tested, and the z-score was 0.833.
Work on `O=C(O)CCCCCN1C(=O)CSC1=S` yielded a z-score of 0.0586.
With `COCCNC(=O)C(=O)c1cc(C)n(-c2ccc([N+](=O)[O-])cc2)c1C` the z-score was 0.62.
For `Cc1ncsc1CCOC(=O)c1ccc([N+](=O)[O-])cc1`, the z-score was -0.138.
With `O=C(c1ccc(COc2ccccc2Cl)o1)N1N=C(C(F)F)CC1(O)C(F)F` (configuration not stated) the z-score was -0.204.
Molecule `NC(=O)c1nc(C2CCCCC2)nc2c1[nH]c(=O)n2-c1ccc(F)cc1` has a z-score of 0.235.
Work on `Cc1cc(C)cc(N2C(=O)C3NN=C(C(=O)OCc4ccccc4)C3C2=O)c1` (configuration not stated) yielded a z-score of -0.131.
With `O=C(CNS(=O)(=O)c1ccccc1)NCc1ccccn1` the z-score was 0.407.
`Cc1ccc(S(=O)(=O)Cc2ccc(C(=O)O)o2)cc1` gave a z-score of -0.0931.
With `O=C1C2C(C(=O)N1CC1CCCO1)C1C=CC2C12CC2` (configuration not stated) the z-score was 0.614.
Molecule `c1ccc(COc2ccc(Oc3nc(N4CCCCC4)nc(N4CCOCC4)n3)nn2)cc1` has a z-score of -1.28.
With `COc1ccc(CNC(=O)CS(=O)Cc2nc(-c3ccccc3C)oc2C)cc1` (configuration not stated) the z-score was -0.364.
For `COc1ccc(C(=O)Nc2n[nH]c(-c3ccncc3)n2)cc1`, the z-score was 1.08.
`CC(C)(C)c1ccc(-c2nnc(SCCC#N)n2C2CCCC2)cc1` was tested, and the z-score was -0.226.
Molecule `CC(NC(=O)CSc1nc(=O)cc(N)n1CCc1ccccc1)c1ccccc1` (configuration not stated) has a z-score of 0.0738.
`Clc1ccc2c(NNc3ccccc3Cl)ccnc2c1` was tested, and the z-score was -0.353.
Work on `CS(C)(=O)=NS(=O)(=O)c1ccc(Cl)cc1` yielded a z-score of -0.15.
`CC(=O)Nc1ccc(S(=O)(=O)n2nc(C)cc2C)cc1` showed a z-score of 0.47.
`Cc1ccc(C2C3=C(CC(C)(C)CC3=O)NC3=C2C(=O)CC(C)(C)C3)o1` was tested, and the z-score was -0.194.
`O=C1CC(NNc2ccccc2)C(=O)N1c1ccccc1` (configuration not stated) gave a z-score of -0.363.
Molecule `Cc1ccc2c(c1)c(C)cc(=O)n2CCC(=O)O` has a z-score of 0.379.
For `CCN(CC)C(=O)c1ccc(COc2ccccc2Cl)cc1`, the z-score was -0.28.
`O=C(Nc1nc2c(s1)CCCC2)c1cc(-c2ccc3c(c2)OCO3)nc2ccccc12` showed a z-score of 0.0309.
In the case of `COc1ccccc1N1CCN(C(=O)c2ccc(N3CCCC3=O)cc2)CC1`, the z-score is reported as -2.25.
Molecule `COc1ccc(NC(=O)c2cccs2)c([N+](=O)[O-])c1` has a z-score of -0.262.
With `CCOc1ccc(NC(=O)C2CC(=O)N(C(C)C)C2)cc1` (configuration not stated) the z-score was -0.136.
`N#C/C(=C\c1cccc([N+](=O)[O-])c1)C(=O)NCc1cccnc1` gave a z-score of -0.658.
`N#Cc1c(NC(=O)CSc2n[nH]c(Cc3ccccc3)n2)oc(-c2ccccc2)c1-c1ccccc1` was tested, and the z-score was -0.98.
For `CCn1c(CCCOc2ccc(Cl)cc2Cl)nnc1SCC(=O)Nc1cc(F)ccc1C`, the z-score was 0.256.
`COc1ccc(Cl)cc1NC(=O)Nn1cnnc1` was tested, and the z-score was 0.046.
`CC(C(=O)Nc1nccs1)N1C(=O)C2CC=CCC2C1=O` (configuration not stated) gave a z-score of -0.237.
`CN(C)S(=O)(=O)c1cc([N+](=O)[O-])ccc1N1CCCCCC1` was tested, and the z-score was -0.497.
`CCOC(=O)c1sc(NC(=O)CSc2nc(-c3ccco3)cc(C(F)(F)F)n2)c(C(=O)OC(C)C)c1C` was tested, and the z-score was -0.257.
Molecule `CN(C)S(=O)(=O)c1cccc(-c2nn(-c3ccccc3)cc2/C=C2\SC(=S)NC2=O)c1` has a z-score of -0.225.
In the case of `O=C(Cn1cnc2ccccc2c1=O)c1ccc2ccccc2c1`, the z-score is reported as 0.873.
`Cc1nc(SCC(=O)c2cc3ccccc3oc2=O)c(C#N)c(C)c1C(=O)Nc1ccccc1` gave a z-score of -0.21.
Work on `O=C(CSc1nc(N2CCCCC2)nc(N2CCCCC2)n1)Nc1nccs1` yielded a z-score of -0.0454.
`Cc1ccc(C2CC(c3ccccc3)=NN2C(=O)CSc2nnc(-c3ccc(Cl)cc3)o2)o1` (configuration not stated) showed a z-score of 0.544.
Molecule `Clc1ccc(CN2CCC(c3nc4ccc(Cl)cc4[nH]3)CC2)cc1` has a z-score of 1.42.
`Cn1c(=O)[nH]c(=O)c2c1nc(Br)n2CCOc1ccccc1` showed a z-score of 0.099.
Work on `N#C/C(=C/c1ccc(Sc2nc3ccccc3[nH]2)o1)c1cccc(F)c1` yielded a z-score of -0.345.
For `CC1CCCC(NC(=S)Nc2ccc(SC(F)F)cc2)C1C` (configuration not stated), the z-score was active: 4.36.
`COc1ccc(N(CC(=O)NCCSC2CCCCC2)S(C)(=O)=O)c(OC)c1` was tested, and the z-score was 0.06.

Source: PubChem BioAssay AID488969 (Vanderbilt High Throughput Screening Facility, 2010)
